{"source": "PubChem BioAssay AID624417", "about": "(National Center for Advancing Translational Sciences (NCATS), 2012)", "note": "Screen size: about 410,000 compounds; about 6,400 (1.6%) were called active. The inconclusive results got no clear call from the source; some entries with a clear call stand among them for comparison. The call rests on the fitted dose curve; in most records, active means well fitted inhibition curve with a large enough effect; inconclusive means small, poorly fitted or top-dose-only effect; inactive means no such curve, though single readings can be large or run the other way. No potency is given beside an inconclusive call; the fits are too rough. On the % scale 0 is the no-effect control and ±100 the full control effect; potency means the concentration at half of the fitted maximal effect; tags describe the fitted curve by direction and shape.", "data": [{"molecular_target": "Glucagon-like peptide 1 receptor (Homo sapiens) (UniProt P43220)", "sequence (P43220 whole entry, looked up)": "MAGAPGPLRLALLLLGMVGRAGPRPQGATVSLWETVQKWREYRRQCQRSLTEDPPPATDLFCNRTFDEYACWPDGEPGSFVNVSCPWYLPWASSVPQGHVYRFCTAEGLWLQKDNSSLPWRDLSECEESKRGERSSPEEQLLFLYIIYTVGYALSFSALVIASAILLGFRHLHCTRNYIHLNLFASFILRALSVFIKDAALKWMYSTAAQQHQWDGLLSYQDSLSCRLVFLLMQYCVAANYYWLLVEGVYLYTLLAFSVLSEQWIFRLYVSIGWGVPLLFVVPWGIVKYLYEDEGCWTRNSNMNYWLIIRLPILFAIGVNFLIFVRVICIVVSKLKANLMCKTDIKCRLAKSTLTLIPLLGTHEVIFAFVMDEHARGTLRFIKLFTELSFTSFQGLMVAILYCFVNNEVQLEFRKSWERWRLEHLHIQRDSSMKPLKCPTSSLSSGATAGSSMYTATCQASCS", "assay": "qHTS of GLP-1 Receptor Inverse Agonists (Inhibition Mode); further: nearly all actives have a fitted effect of over 55% in size", "conditions": "HEK293 GLP-1R CRE-luciferase, luminescence, 24 h, GLP-1R form is constitutively active; activity change, negative = inhibition: at 38.3 µM (top of the series) unless noted", "summary_of_the_method": "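Cells are plated, allowed 12 hours at 37 deg C, then treated with compounds for 24 hr before luciferase detection reagent is added and luminescence is read after 12 min at room temperature. The HEK293 line carries constitutively active GLP-1R with a cAMP-responsive reporter.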", "values": [{"smiles": "Cc1ccc(NC(=O)COc2cccc(Oc3ccccc3)c2)cc1S(=O)(=O)N1CCOCC1", "Potency": "inconclusive [inhibitor, partial curve, poor fit]"}, {"smiles": "CCOC(=O)c1c(C)[nH]c(C)c1C(=O)CSc1nnc(-c2ccc(OC(F)F)cc2)o1", "Potency": "inconclusive [inhibitor, full curve, poor fit]"}, {"smiles": "CC12CCC(=O)N1C(C(=O)Nc1ccc(Cl)c(Cl)c1)CS2", "note": "(configuration not stated)", "Potency": "inconclusive [inhibitor, single point]"}, {"smiles": "O=C(Cc1cccc(F)c1)Nc1ccc2c(c1)CCC2", "Potency": "inconclusive [inhibitor, single point]"}, {"smiles": "CCC1Nc2ncnc(N3CCN(c4ccccc4)CC3)c2N(Cc2ccc(OC)cc2)C1=O", "note": "(configuration not stated)", "Potency": "inconclusive [inhibitor, partial curve, poor fit]"}, {"smiles": "COc1ccc(C2c3[nH]c4ccccc4c3CCN2C(=O)Cc2nonc2C)c(F)c1", "note": "(configuration not stated)", "Potency": "inconclusive [inhibitor, partial curve, poor fit]"}, {"smiles": "CCN(CC(=O)Nc1ccccc1-c1ccccc1)Cc1nc2ccccc2c(=O)[nH]1", "Potency": "inconclusive [inhibitor, full curve, poor fit]"}, {"smiles": "O=S(=O)(NC1CC1)c1ccc(S(=O)(=O)N2CCCc3ccccc32)cc1", "Potency": "inconclusive [inhibitor, single point]"}, {"smiles": "CCCCC(=O)NC(c1ccc(N(CC)CC)cc1)c1ccc2cccnc2c1O", "note": "(configuration not stated)", "Potency": "inconclusive [inhibitor, full curve, poor fit]"}, {"smiles": "COc1ccc(CCNC(=O)C(=O)Nc2ccc(C)cc2)cc1OC", "activity change, negative = inhibition": "inactive: 9.71%"}, {"smiles": "Cc1cc(C)cc(NC(=S)NCc2cccs2)c1", "Potency": "inconclusive [inhibitor, single point]"}, {"smiles": "CCN(C[C@H]1N[C@@](Cc2ccccc2)(C(=O)OC)[C@H]2C(=O)N(Cc3ccccc3)C(=O)[C@@H]12)C(=O)Nc1ccc(C(F)(F)F)cc1", "Potency": "inconclusive [inhibitor, single point]"}, {"smiles": "Oc1ccc(/C=N/N2CCN(C3c4ccccc4-c4ccccc43)CC2)c(O)c1", "Potency": "inconclusive [inhibitor, single point]"}, {"smiles": "CCN(C(=O)c1cc2cc3ccc(OC)cc3nc2o1)c1cccc(C)c1", "Potency": "inconclusive [inhibitor, partial curve]"}, {"smiles": "O=C(NC1CCCCCCC1)c1cccs1", "Potency": "inconclusive [inhibitor, single point]"}, {"smiles": "CN(C)S(=O)(=O)c1ccc(N2CCCC2)c(C(=O)NCc2ccccc2)c1", "Potency": "inconclusive [inhibitor, partial curve, poor fit]"}, {"smiles": "Cc1noc(C)c1C(=O)N1CCCC(C(=O)c2cccc(C(F)(F)F)c2)C1", "note": "(configuration not stated)", "Potency": "inconclusive [inhibitor, partial curve]"}, {"smiles": "CCC(C)(C)n1nnnc1C(c1ccccn1)N1CCN(c2cccc(OC)c2)CC1", "note": "(configuration not stated)", "Potency": "inconclusive [inhibitor, partial curve, poor fit]"}, {"smiles": "C/C(=N\\NC(=O)c1nnn(-c2nonc2N)c1CN(C)c1ccccc1)c1ccccn1", "Potency": "inconclusive [inhibitor, partial curve, poor fit]"}, {"smiles": "COc1ccc(Cc2nc3ccc(C(=O)NCc4ccc(OC)cc4OC)cc3o2)cc1", "Potency": "inconclusive [inhibitor, single point]"}, {"smiles": "CCCCCCCCN1C(=O)[C@H](CC(=O)N2CCSCC2)C[C@@]2(C(=O)OCC)CCCC=C12", "Potency": "inconclusive [inhibitor, partial curve, poor fit]"}, {"smiles": "O=C(NCc1ccco1)c1cccc(-c2ccc3nncn3c2)c1", "activity change, negative = inhibition": "inactive: 17.9%"}, {"smiles": "O=C(Cn1ncc2c3ccccc3n(Cc3ccccc3)c2c1=O)NCCN1CCOCC1", "activity change, negative = inhibition": "inactive: -18.4%"}, {"smiles": "Clc1ccc(OCc2cc(-c3ccccc3)no2)cc1Cl", "Potency": "inconclusive [inhibitor, single point]"}, {"smiles": "O=C1[C@H]2[C@@H](c3ccccc3)N[C@]3(CCCN(Cc4ccc(F)cc4)C3=O)[C@H]2C(=O)N1Cc1ccccc1", "activity change, negative = inhibition": "inactive: -22.9%"}, {"smiles": "OC[C@@H]1CN(Cc2ccc(-c3ccccc3)cc2)C[C@H](n2cnc3c(NC4CCCC4)ncnc32)O1", "Potency": "active: 8.91 µM"}, {"smiles": "COc1cccc(NC(=O)C(C)OC(=O)CCCNC(=O)c2ccc(Cl)cc2)c1", "note": "(configuration not stated)", "activity change, negative = inhibition": "inactive: -6.72%"}, {"smiles": "CCc1ccccc1NC(=O)C1CCN(S(=O)(=O)c2ccc3[nH]c(=O)ccc3c2)CC1", "activity change, negative = inhibition": "inactive: 15.4%"}, {"smiles": "C=C(C)CC1Nc2ccccc2NC1CC(=C)C", "note": "(configuration not stated)", "Potency": "inconclusive [inhibitor, single point]"}, {"smiles": "CCCn1nc(Oc2nc(SC)nc(N(C)C)n2)ccc1=O", "activity change, negative = inhibition": "inactive: 5.95%"}, {"smiles": "COC(=O)c1ccc(-c2ccco2)n1Cc1cccc(C)c1", "Potency": "inconclusive [inhibitor, full curve, poor fit]"}, {"smiles": "CC(=O)C1=NOC(CNC(=O)c2c(-c3ccccc3Cl)noc2C)C1", "note": "(configuration not stated)", "Potency": "inconclusive [inhibitor, partial curve, poor fit]"}, {"smiles": "C#CCN(C(=O)c1ccc(OC)c(OC2CCN(C(C)C)CC2)c1)C1CCCCC1", "Potency": "inconclusive [inhibitor, partial curve, poor fit]"}, {"smiles": "Cc1ccc(-c2nc(CS(=O)(=O)CC(=O)N3CCN(C)CC3)c(C)o2)cc1", "Potency": "inconclusive [inhibitor, full curve]"}, {"smiles": "COc1nc(-c2ccccc2)ccc1-c1noc(-c2cccnc2)n1", "activity change, negative = inhibition": "inactive: 0%"}, {"smiles": "O=C(Nc1cccc(Cl)c1)NC1CCN(C2CCCCC2)C1", "note": "(configuration not stated)", "Potency": "inconclusive [inhibitor, single point]"}, {"smiles": "CSc1ccc(/C=N/NC(=O)CN2CCN(Cc3ccc(C)cc3)CC2)cc1", "Potency": "inconclusive [inhibitor, partial curve, poor fit]"}, {"smiles": "O=C(CC1C(=O)NCCN1Cc1ccc(-c2ccccc2)cc1)NCc1ccccc1", "note": "(configuration not stated)", "Potency": "inconclusive [inhibitor, partial curve, poor fit]"}, {"smiles": "COc1ccc(C(=O)Nc2ccccc2C(=O)N/N=C/c2ccccn2)cc1OC", "Potency": "inconclusive [inhibitor, single point]"}, {"smiles": "c1ccc(CNc2nc(NCCOc3ccccc3)c3sccc3n2)cc1", "Potency": "inconclusive [inhibitor, single point]"}, {"smiles": "CC(C)CN(CC(C)C)CC(O)COc1ccc([N+](=O)[O-])cc1", "note": "(configuration not stated)", "Potency": "inconclusive [inhibitor, partial curve, poor fit]"}, {"smiles": "O=C(c1cccc(Cl)c1)N1CCN(Cc2ccccc2F)CC1", "Potency": "inconclusive [inhibitor, partial curve, poor fit]"}, {"smiles": "Cc1ccc(S(=O)(=O)N2CCCCC2)cc1NC(=O)COC(=O)c1ccc(O)cc1", "Potency": "inconclusive [inhibitor, partial curve, poor fit]"}, {"smiles": "CCOC(=O)Cc1csc(NC(=O)c2c(O)c3c(n(CC(C)C)c2=O)CCCC3)n1", "Potency": "inconclusive [inhibitor, partial curve, poor fit]"}, {"smiles": "S=C(NCCc1ccccn1)Nc1ccc(Cl)cc1", "activity change, negative = inhibition": "inactive: 23.1%"}, {"smiles": "C=CCN(c1ccccc1)S(=O)(=O)c1cc2c(cc1C)N(C)CCO2", "Potency": "inconclusive [inhibitor, partial curve, poor fit]"}, {"smiles": "O=C(NCc1ccco1)NC12CC3CC(CC(C3)C1)C2", "Potency": "inconclusive [inhibitor, partial curve, poor fit]"}, {"smiles": "c1ccc(C2CNCc3c2ccc2ccccc32)cc1", "note": "(configuration not stated)", "Potency": "inconclusive [inhibitor, single point]"}, {"smiles": "COc1ccc(NC(=O)CN(C)C(=O)c2oc3ccccc3c2C)cc1", "Potency": "inconclusive [inhibitor, partial curve, poor fit]"}, {"smiles": "N#CC1=C(N)Oc2cc3ccccc3cc2C1c1cccs1", "note": "(configuration not stated)", "Potency": "inconclusive [inhibitor, partial curve, poor fit]"}, {"smiles": "O=C(Nc1sc2c(c1C(=O)O)CCCC2)c1ccc(F)cc1", "Potency": "inconclusive [inhibitor, partial curve]"}, {"smiles": "CC(C)NC(=O)c1cnc(N2CCN(c3ccccn3)CC2)c2ccccc12", "Potency": "inconclusive [inhibitor, full curve, poor fit]"}, {"smiles": "CCOC(=O)C(=CNc1cccnc1Oc1ccc(C)c2c1CCC2)C(=O)OCC", "activity change, negative = inhibition": "inactive: 6.9%"}, {"smiles": "O=C(NCC(c1ccco1)N1CCc2ccccc21)c1cccc(F)c1", "note": "(configuration not stated)", "Potency": "inconclusive [inhibitor, partial curve, poor fit]"}, {"smiles": "CCc1ccc(OCC(=O)O/N=C(\\N)c2ccncc2)cc1", "Potency": "inconclusive [inhibitor, single point]"}, {"smiles": "COc1ccc(C)cc1NC(=O)CSc1nc2ccccc2nc1N1CCOCC1", "Potency": "inconclusive [inhibitor, single point]"}, {"smiles": "Cc1ccccc1S(=O)(=O)Cc1ccc(C(=O)N(C)C2CCCCC2)o1", "Potency": "inconclusive [inhibitor, single point]"}, {"smiles": "O=C(N/N=C/c1cc(Br)ccc1O)C(c1ccncc1)N1CCOCC1", "note": "(configuration not stated)", "Potency": "inconclusive [inhibitor, single point]"}, {"smiles": "CC(C)CCN(C(=S)Nc1cccc(F)c1)C1CCN(C(C)C)CC1", "Potency": "inconclusive [inhibitor, partial curve, poor fit]"}, {"smiles": "CSCCC(NC(=O)COc1ccccc1)C(=O)N(C)Cc1ccc(Cl)cc1Cl", "note": "(configuration not stated)", "Potency": "inconclusive [inhibitor, single point]"}, {"smiles": "CN(c1ccccc1)S(=O)(=O)c1cccc(C(=O)NNC(=O)c2ccncc2)c1", "activity change, negative = inhibition": "inactive: 4.37%"}, {"smiles": "CC1CCN(C(=O)c2ccc3ccccc3c2)CC1", "Potency": "inconclusive [inhibitor, single point]"}]}]}
